# Measurements taken from paper PMC12040169 (PLOS Biology, 2025).
# This is one part of the list.
# Tested on: T1, C. trachomatis L2/434/Bu expressing GFP (CTL2-GFP)
# T1 construct: L2/434/Bu GFP intracellular growth in HeLa cells
# Set-up: species or system HeLa; C. trachomatis total inclusion area by high-content imaging, normalised to DMSO
# Details: total inclusion area; 28.5 h, 10 µM; inhibitor
# Summary of the method: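 Bulk GFP and resorufin signals were read first. Wells were then fixed, stained with Hoechst and imaged to detect GFP inclusions and host nuclei. MICs followed the previously described calculation.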
row,Structure (SMILES),% of control remaining
1,Cc1cnc(NC(=O)N2CCOC(c3ccc(F)cc3F)C2)s1 (stereo not shown) [CBK304126],44.8542
2,N#Cc1nc(/C=C/c2cccs2)oc1NCCCn1ccnc1 [CBK269455],70.0443
3,O=C(O)COc1ccc(S(=O)(=O)N2CCCc3ccccc32)cc1 [CBK269935],80.1912
4,O=C(O)CS(=O)(=O)c1ccccc1C(=O)O [CBK261083],96.4246
5,COC(=O)c1c(NC(=O)C2CC(=O)NN2C)sc2c1CCC2 (stereo not shown) [CBK269218A],121.308
6,COc1ccc(CCN2CCC(Oc3nccnc3OCCN3C(=O)CCC3=O)CC2)cc1OC [CBK084359],84.791
7,CCCC/C=C/c1nccnc1NCc1ccncc1 [CBK037500],67.2026
8,Nc1c(-c2ccsc2)cnc2cccnc12 [CBK081208],101.438
9,CC(C)c1[nH]c2ncccc2c1CN1CCSCC1 [CBK285312],78.0245
10,COc1ccccc1-c1nc(C2CCCN2C(=O)CCCC(=O)O)n2ccccc12 (stereo not shown) [CBK046600],109.712
11,CN(C)CCN(C)c1cc(-c2cccc(Br)c2)nc2ccnn12 [CBK037140],60.8054
12,O=c1ccc2c(-c3cccc(OCc4ccccc4)c3)ccnc2[nH]1 [CBK073739],74.2955
13,Cc1ccc(OCC(=O)NC(Cc2ccccc2)C(=O)O)cc1 (stereo not shown) [CBK217681],97.9749
14,O=C(c1ccc2[nH]ccc2c1)N1CCc2ccccc21 [CBK200269],88.023
15,CCOC(=O)C1=C(C)N(CC)C(=O)NC1c1cc(OC)c(OC)c(OC)c1 (stereo not shown) [CBK091912],92.5287
16,CC1CN(CCCCNCc2cn(C)nc2-c2cccnc2)CC(C)O1 (stereo not shown) [CBK304453],54.0161
17,COCc1cc(C[C@H]2CNCC[C@H]2CC(=O)N2CCCCC2)no1 [CBK288899],87.4883
18,O=C1OCCN1C1CCN(S(=O)(=O)c2cccs2)CC1 [CBK043313],106.799
19,CC(C)n1nccc1C(=O)NCC(c1ccccc1F)N1CCCC1 (stereo not shown) [CBK283032],93.8551
20,CC1SC2(C(=O)Nc3ccccc32)N(c2ccc(Oc3ccccc3)cc2)C1=O (stereo not shown) [CBK103750],89.1569
21,CN1CCN(C(=O)c2cc(Br)cnc2NCCOc2ccccc2)CC1 [CBK076231],102.026
22,COCCN(C(=O)c1[nH]c2c(F)cccc2c1C)C1CCN(C)CC1 [CBK307386],75.5163
23,COc1ccc(C(=O)N2CCC3(CCN(Cc4cccc(C#N)c4)C3)C2)cc1OC (stereo not shown) [CBK132153],94.9004
24,O=C(O)c1cccc(Nc2ncnc3ccccc23)c1 [CBK073042],95.6651
25,Clc1ccc(-c2nn3c4cc(N5CCNCC5)ccc4nc3c3ccccc23)cc1 [CBK268319],104.796
26,Cc1c(C(=O)N(CC(=O)O)C2CC2)nnn1-c1ccc(Cl)cc1F [CBK304738],72.1446

row,Structure (SMILES),% of control remaining
1,COc1ccc([N+](=O)[O-])cc1Nc1nc(-c2ccccc2)nc2ccccc12 [CBK265913],87.4263
2,Cc1cc(NC(c2cccc([N+](=O)[O-])c2)c2ccc3cccnc3c2O)no1 (stereo not shown) [CBK296083],87.7697
3,Cc1cc(I)ccc1NC(=O)CN(c1ccccc1)S(=O)(=O)c1ccccc1[N+](=O)[O-] [CBK265954],58.8783
4,C[C@]12CN(Cc3cccs3)C[C@H]1NC(=O)c1ccccc1C2=O [CBK284702],107.917
5,COc1cccc(Oc2nccnc2-c2ccc(F)cc2)c1 [CBK106897],84.0219
6,O=C(O)c1ccc(NC(=O)c2ccc(S(=O)(=O)N3CCCCC3)cc2)cc1 [CBK267813],98.3749
7,CC(C)c1c(SCCN)[nH]c2ccccc12 [CBK017265C],36.308
8,Cc1ccc2c(c1)C(C)(c1ccccc1)CC(C)(C)N2C(=O)CSc1nncn1C (stereo not shown) [CBK022397],99.4993
9,COc1cncc(-c2cc(NCc3cc(OC)c(OC)c(OC)c3)ncn2)c1 [CBK091183],87.7046
10,CCCC1NCCn2cccc21 (stereo not shown) [CBK007074F],22.1807
11,CN1CCN(c2ccc(NC(=O)c3ccc([N+](=O)[O-])o3)cc2)CC1 [CBK269727],0.3106
12,CC(Oc1cccc2ccccc12)C(=O)N/N=C/c1ccc(Cl)cc1Cl (stereo not shown) [CBK262218],104.8
13,CC(C)=C(NC(=O)c1ccccc1)C(=O)Nc1cccc(C(=O)O)c1 [CBK058180],94.9589
14,CS(=O)(=O)c1ccc(-n2ncc(-c3ccc(C(F)(F)F)cc3)n2)cc1 [CBK112698],90.5218
15,CC(C)(C)C(=O)N1CCC(C(=O)NC(c2ccc3c(c2)OCO3)c2ccccn2)CC1 (stereo not shown) [CBK060074],101.755
16,Cn1nc(C2CCCC2)cc1[C@H]1CN2CC[C@H]1C[C@@H]2CNC(=O)N1CCOCC1 [CBK288740],88.4064
17,CCOc1ccc2nc(NS(=O)(=O)c3ccc4c5c(cccc35)C(=O)N4)sc2c1 [CBK262162],99.7189
18,O=C(c1cccnc1)C1CCN(C(=O)C2CCCC2)CC1 [CBK283508],99.5378
19,CN1CC=C(/C=C/c2c[nH]c3ccccc23)CC1 [CBK283602],17.6235
20,CCc1nn(CC(=O)N(CC)CC)c(=O)c2cc3oc(C)cc3n12 [CBK283583],56.9007
21,COC(=O)[C@@H](C)NC(=O)[C@@H]1CN(C(=O)c2cccc(F)c2)CCN1C(C)=O [CBK289620],109.745
22,O=C(O)CSCC(=O)Nc1ccc(Cl)cn1 [CBK057543],87.7671
23,CC1CC(Nc2ccccc2)c2ccccc2N1 (stereo not shown) [CBK057947],100.093
24,Cc1ccc2c(c1)nc1n2CCC1O (stereo not shown) [CBK113622],93.4222
25,CC(=O)Nc1cccc(NC(=O)c2cc(-c3ccccc3)nn2-c2ccccc2)c1 [CBK296997],93.3824
26,CCOC(=O)N1CCC(NS(=O)(=O)c2cc(Br)c(Cl)s2)CC1 [CBK045472],90.1536
